# Data reported in PubChem BioAssay AID624417 (National Center for Advancing Translational Sciences (NCATS), 2012).
# The whole screen tested about 410,000 compounds, of which about 6,400 (1.6%) were called active. This list was built around the results that the source calls inconclusive (neither active nor inactive); the mix of calls is not that of the screen. The call rests on the fitted dose curve; in most records, active means well fitted inhibition curve with a large enough effect; inconclusive means small, poorly fitted or top-dose-only effect; inactive means no such curve, though single readings can be large or run the other way. Potencies of inconclusive entries are left out as doubtful fits.
# Molecular target: Glucagon-like peptide 1 receptor (Homo sapiens) (UniProt P43220)
# Sequence of UniProt P43220 (P43220 whole entry, looked up): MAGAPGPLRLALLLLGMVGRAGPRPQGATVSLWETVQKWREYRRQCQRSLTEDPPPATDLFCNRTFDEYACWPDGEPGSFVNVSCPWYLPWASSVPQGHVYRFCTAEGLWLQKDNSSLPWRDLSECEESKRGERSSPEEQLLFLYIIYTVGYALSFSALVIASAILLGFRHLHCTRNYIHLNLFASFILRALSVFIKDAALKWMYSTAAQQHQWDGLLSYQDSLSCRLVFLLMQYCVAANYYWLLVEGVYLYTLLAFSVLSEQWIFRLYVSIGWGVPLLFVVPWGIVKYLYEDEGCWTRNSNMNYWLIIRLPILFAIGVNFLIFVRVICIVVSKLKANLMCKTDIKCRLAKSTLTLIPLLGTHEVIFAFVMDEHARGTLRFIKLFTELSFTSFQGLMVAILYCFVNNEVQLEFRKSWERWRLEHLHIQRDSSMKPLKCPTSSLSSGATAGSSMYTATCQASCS
# Test: qHTS of GLP-1 Receptor Inverse Agonists (Inhibition Mode); further: nearly all actives have a fitted effect of over 55% in size
# Settings: HEK293 GLP-1R CRE-luciferase, luminescence, 24 h, GLP-1R form is constitutively active; series mostly up to 38.3 µM
# Method in brief: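 Inverse agonism was detected as reduced cAMP-driven luciferase luminescence after 24 h compound treatment. The cells were HEK293 clones expressing constitutively active human GLP-1R with the reporter. Reporter-only and GPR119 cell lines served as counterscreen controls.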
# Potency means the concentration at half of the fitted maximal effect; tags describe the fitted curve by direction and shape.
row,SMILES,Potency
1,CCC1CCCCN1CCCNC(=O)C1CCC(Cn2c(=O)[nH]c3ccccc3c2=O)CC1 (stereo not drawn),inactive
2,Cc1cc(C)nc(Nc2nc(C)c3cc4c(cc3n2)OCO4)n1,inactive
3,Cc1ccccc1NC(=O)/C(=C/c1ccccc1)c1ccccc1,"inconclusive [inhibitor, partial curve, poor fit]"
4,CC(C)NC(=S)N/N=C1\CCCCc2ccccc21,"inconclusive [inhibitor, partial curve, poor fit]"
5,CC1CN(S(=O)(=O)c2ccc(CN3C(=O)c4cccnc4C3=O)cc2)c2ccccc2O1 (stereo not drawn),"inconclusive [inhibitor, single point]"
6,COc1ccc(C(=O)NC2CC2)cc1OC1CCN(C(C)CSC)CC1 (stereo not drawn),inactive
7,CC(C)(C)c1ccc(-c2nc(C#N)c(NCCCn3ccnc3)o2)cc1,inactive
8,CCOc1ccc2[nH]c(O)c(NC(C)=O)c2c1,inactive
9,CSc1ccc(CCNC(=O)NCc2noc3ccccc23)cc1,"inconclusive [inhibitor, single point]"
10,CCN(CC)C(=O)c1cccc(-c2csc(C(O)c3ccc(F)c(OC)c3)n2)c1 (stereo not drawn),"inconclusive [inhibitor, single point]"
11,O=C(Nc1ccc(Cl)cc1)Nc1ccccc1NS(=O)(=O)c1cccs1,"inconclusive [inhibitor, single point]"
12,O=C(C1CCC(CNS(=O)(=O)c2cccc3nsnc23)CC1)N1CCN(c2ccccn2)CC1 (stereo not drawn),"inconclusive [inhibitor, single point]"
13,CC1(C)Cc2c(sc(NC(=O)c3ccc(C(=O)c4ccccc4)cc3)c2C(N)=O)C(C)(C)N1,"inconclusive [inhibitor, full curve, poor fit]"
14,CCOC(=O)[C@H]1[C@H]2COc3ccc(Br)cc3[C@@H]2N2C(=O)CN(Cc3ccc(F)cc3)C(=O)[C@@]12C,"inconclusive [inhibitor, single point]"
15,CCC(CNc1cc(OC)cc2cccnc12)NC1CCCCC1 (stereo not drawn),"inconclusive [inhibitor, single point]"
16,CCOC(=O)[C@]12CCCC=C1N(CCC1=CCCCC1)C(=O)[C@H](CC(=O)N1CCSCC1)C2,"inconclusive [inhibitor, partial curve, poor fit]"
17,COc1cc2nc(NCCCN3CCN(C)CC3)n3nc(-c4ccccc4)nc3c2cc1OC,"inconclusive [inhibitor, partial curve, poor fit]"
18,Cc1cccc(NC(=O)Cn2cc(C(=O)C3CCCCC3)c3ccccc32)c1,inactive
19,COc1ccccc1/C=C/C(=O)NCC(=O)N/N=C(/C)c1ccc(Cl)cc1,"inconclusive [inhibitor, partial curve, poor fit]"
20,Cc1ccc(C2OC34CCCCCC3C(C#N)(C(=N)O4)C2(C#N)C#N)cc1 (stereo not drawn),"inconclusive [inhibitor, single point]"
21,COc1ccc2cc(C(=O)N3CCN(c4ccccc4OC)CC3)[nH]c2c1,"inconclusive [inhibitor, single point]"
22,O=C(Nc1ccc(-c2cn3ccsc3n2)cc1)c1ccc(F)c(S(=O)(=O)N2CCOCC2)c1,"inconclusive [inhibitor, partial curve, poor fit]"
23,Cc1ccc(-c2nc(CS(=O)CC(=O)NCc3ccc(Cl)cc3)c(C)o2)cc1 (stereo not drawn),"inconclusive [inhibitor, single point]"

row,SMILES,Potency
1,Cc1c(CCNC=O)cc(C)c2c3c(oc12)CCCC3,inactive
2,Cc1ccsc1/C=N/n1c(C2CCCCC2)n[nH]c1=S,"inconclusive [inhibitor, single point]"
3,CCN(C(=O)COC(=O)C1=COCCO1)c1c(N)n(Cc2ccccc2)c(=O)[nH]c1=O,inactive
4,C=CCCC(=O)N1CCCC(Cc2cccc(Cl)c2)(C(=O)OCC)C1 (stereo not drawn),"inconclusive [inhibitor, single point]"
5,CCCCN1/C(=C/c2ccc3ccccc3[n+]2CC)Sc2ccccc21,inactive
6,CC(=O)c1ccc(OCCCC(=O)Nc2cc(S(=O)(=O)N3CCCCC3)ccc2C)cc1,"inconclusive [inhibitor, partial curve, poor fit]"
7,COc1cccc2sc(N(Cc3cccnc3)C(=O)c3ccc4c(c3)OCCO4)nc12,inactive
8,CCOC(=O)c1ccc(NC(=O)CC2COc3ccccc3O2)cc1 (stereo not drawn),"inconclusive [inhibitor, single point]"
9,CC1CN(C(=S)Nc2ccc(Cl)cc2)CC(C)O1 (stereo not drawn),inactive
10,COC(=O)c1cc(S(=O)(=O)N2CCN(c3ccc([N+](=O)[O-])cc3)CC2)c[nH]1,"inconclusive [inhibitor, single point]"
11,Cc1ccc(S(=O)(=O)NCc2ccncc2)cc1C,inactive
12,CCOC(=O)N1CCC(Nc2c(-c3ccc(C)cc3)c(=O)c2=O)CC1,inactive
13,COc1ccc(CN2CCN(C(C)C(=O)N(C)Cc3cccc(F)c3)CC2)cc1OC (stereo not drawn),inactive
14,CCN(c1ccccc1)S(=O)(=O)c1ccc(C(=O)NCC2(N(C)C)CCCCC2)cc1,"inconclusive [inhibitor, single point]"
15,CCCN(Cc1ccccc1)C(=S)Nc1cccc(C(F)(F)F)c1,"inconclusive [inhibitor, partial curve, poor fit]"
16,CC(C)c1ccc(S(=O)(=O)N2CCC(n3c(C(F)(F)F)nc4cccnc43)CC2)cc1,inactive
17,COc1ccc(CC(=O)OCC(=O)c2c[nH]c3ccccc23)cc1,"inconclusive [inhibitor, single point]"
18,Cc1cc(F)ccc1NC(=O)c1cc(S(=O)(=O)N2CCc3ccccc32)cn1C,"inconclusive [inhibitor, partial curve, poor fit]"
19,Cc1ccc(S(=O)(=O)N2CCCCC2)cc1NC(=O)CSc1ccc2c(c1)OCCO2,"inconclusive [inhibitor, partial curve, poor fit]"
20,CCOC(=O)c1sc(NS(=O)(=O)c2ccccc2Cl)nc1C,inactive
21,Cc1ccc(C)c(NC(=O)CN2CCSc3ccc(S(=O)(=O)N4CCCC4)cc32)c1,"inconclusive [inhibitor, single point]"
22,COc1ccccc1CNC(=O)c1ccc(OC(C)C)cc1,"inconclusive [inhibitor, single point]"
23,Cc1ccccc1NC(=O)Cc1nc(COC(=O)c2cccc(C)c2O)cs1,"inconclusive [inhibitor, single point]"

row,SMILES,Potency
1,CSc1ccc(CC(=O)N2CCC(n3nccc3NC(=O)C3CC3)CC2)cc1,inactive
2,Cn1c2ccccc2c2c(C(=O)N3CCN(C(=O)c4ccco4)CC3)cn(C3CCCCC3)c(=O)c21,"inconclusive [inhibitor, partial curve, poor fit]"
3,Cc1ccccc1OCCn1cc(C(=S)N2CCN(C)CC2)c2ccccc21,"inconclusive [inhibitor, partial curve, poor fit]"
4,Cc1ccc(S(=O)(=O)NC2CC(C)(C)NC(C)(C)C2)c(C)c1C,"inconclusive [inhibitor, single point]"
5,CC(=O)c1c(C)oc2ccc(N(C(C)=O)S(=O)(=O)c3cccc4cccnc34)cc12,"inconclusive [inhibitor, full curve, poor fit]"
6,O=C(CN1C(=O)COc2ccccc21)NCCCN1CCc2ccccc2C1,inactive
7,CCc1nc2ccc(C(=O)Nc3ccc(OC)c(OC)c3)cn2c1N(C)Cc1cccs1,"inconclusive [inhibitor, single point]"
8,CC(C)C(O)(C#CCN1CCCC1)c1ccccc1 (stereo not drawn),inactive
9,COc1ccc([C@@H](NC(=O)OC(C)(C)C)C(=O)OC(C)(C)C)cc1,"inconclusive [inhibitor, partial curve, poor fit]"
10,CCn1nc(C)c(CN2CCC(n3nccc3NC(=O)CCCc3ccccc3)CC2)c1C,"inconclusive [inhibitor, single point]"
11,COc1ccc(CCNC(=O)COC(=O)CCC(=O)c2cccs2)cc1OC,inactive
12,NS(=O)(=O)c1ccc(NNC(=O)c2ccc(Br)o2)c([N+](=O)[O-])c1,inactive
13,Cc1ccc(-n2nc(-c3ccccc3)cc2Nc2ccccc2N)cc1,"inconclusive [inhibitor, single point]"
14,Cc1ccccc1S(=O)(=O)Cc1ccc(C(=O)N2CCN(c3cccc(Cl)c3)CC2)o1,"inconclusive [inhibitor, partial curve, poor fit]"
15,Cc1ccc(C(C)(c2ccc(N)cc2)c2ccc(N)cc2)cc1,"inconclusive [inhibitor, single point]"
16,COc1ccc(C(=O)Nc2nc(CC(=O)NCCc3ccccc3OC)cs2)cc1,"inconclusive [inhibitor, partial curve, poor fit]"
17,Clc1ccccc1Cn1nnc2ccccc21,"inconclusive [inhibitor, partial curve, poor fit]"
18,COc1ccc(/C=N/Nc2ncc(Br)cn2)c(OC)c1,inactive
19,Cc1nc(/C(N)=N/OC(=O)c2cccc(Cl)c2)c(C(F)(F)F)o1,inactive
20,Cc1ccc(CNc2nc3cc(-c4ccccc4)sc3c(=O)n2C)c(C)c1,inactive
21,CCN1CCN(Cc2c(O)ccc3c(C)c(-c4ccc(OC)cc4)c(=O)oc23)CC1,inactive
22,COc1cc(C(=O)NCC(c2cccs2)N(C)C)cc(Cl)c1OC(C)C (stereo not drawn),"inconclusive [inhibitor, partial curve, poor fit]"
